Measured values: the RNAGym collection of RNA variant scans (doi:10.1093/nar/gkz1192)
The source gives no read counts; variants with many changes may rest on few reads.

B1: CPEB3 Ribozyme (parent)
chain: UAACAGGGGGCCACAGCAGAAGCGUUCACGUCGCAGCCCCUGUCAGAUUCUGGUGAAUCUGCGAAUUCUGCUGUAUAUCUC

Variants of: B1
Assay: self-cleavage, relative activity (ratio to wild type); higher = more cleavage; in vitro, sequencing
Outline: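 CPEB3 self-cleaving ribozyme mutant libraries were made by rounds of error-prone PCR, barcoded, and transcribed in vitro with T7 RNA polymerase for 5 hours at 37°C. Cleavage occurred during transcription and a 15 min DNase I step before EDTA stop. RNAs were reverse transcribed with template switching and Illumina-sequenced, with DNA sequencing mapping barcodes to variants. Relative activity is the variant's cleaved/total read fraction divided by wild type's (minimum 5 reads), averaged across three batches.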
Variant U31C U51C U72C U80C has a self-cleavage of 0.99. With U31C U51G G52U A56U U80C the self-cleavage was 0.33. Variant U31C U54A G63C U78A has a self-cleavage of 0.64. U31C U54A U58C showed a self-cleavage of 0.46. For U31C U54C A56G U72C, the self-cleavage was 0.45. For U31C U54C A57G A64G, the self-cleavage was 0.2. U31C U54C C62G U67C C68G gave a self-cleavage of 0.22. U31C U54C G55A A65G showed a self-cleavage of 0.11. U31C U54C U66C U69G U74A showed a self-cleavage of 0.1. U31C U54C U67C C68U gave a self-cleavage of 0.16. U31C U54C U69G showed a self-cleavage of 0.26. Variant U31C U54G U58C U76A has a self-cleavage of 0.26. U31C U54G U69C U76C showed a self-cleavage of 0.2. Variant U31C U54G U72C has a self-cleavage of 0.99. In the case of U31C U58C U60C A64G A65G, the self-cleavage is reported as 0.25. U31C U58C U66A G73A showed a self-cleavage of 0.18. In the case of U31C U58C U69C, the self-cleavage is reported as 0.16. With U31C U58G A65U the self-cleavage was 0.15. For U31C U60A U72A, the self-cleavage was 0.12. For U31C U60C G63U, the self-cleavage was 0.4. In the case of U31C U60C G73U, the self-cleavage is reported as 0.68. In the case of U31C U60C U69C, the self-cleavage is reported as 0.3. With U31C U60C U69C U72A U80C the self-cleavage was 0.17. In the case of U31C U66A U78C, the self-cleavage is reported as 0.31. For U31C U66C C71U, the self-cleavage was 0.19. In the case of U31C U67C U72A, the self-cleavage is reported as 0.16. U31C U67C U78C showed a self-cleavage of 0.18. U31C U67G U76C showed a self-cleavage of 0.5. U31C U69A U72C showed a self-cleavage of 0.24. For U31C U69C A75G, the self-cleavage was 0.2. U31C U69C G73A showed a self-cleavage of 0.5. For U31C U72A G73U A77G, the self-cleavage was 0.73. Variant U31C U72G A75C U80C has a self-cleavage of 0.8. With U31C U74C U78C U80A the self-cleavage was 1.31. Work on U31G A35G A65G U69A yielded a self-cleavage of 0.32. U31G A35G U41A U67C showed a self-cleavage of 0.11. In the case of U31G A35G U48C C62A, the self-cleavage is reported as 0.16. With U31G A45C U51A A75U the self-cleavage was 0.09. For U31G A45G U78C, the self-cleavage was 0.42. Variant U31G A64G C81U has a self-cleavage of 0.32. With U31G A64U U66C the self-cleavage was 0.39. U31G A75G U80C gave a self-cleavage of 0.18. U31G C32U U49A A56G U72C gave a self-cleavage of 0.09. In the case of U31G C34U U72A A77G, the self-cleavage is reported as 0.08. Work on U31G C38U A56U A75G yielded a self-cleavage of 0.08. For U31G C38U U78C, the self-cleavage was 0.21. Variant U31G C39G U48C has a self-cleavage of 0.09. For U31G C44U U54G U72C, the self-cleavage was 0.23. Work on U31G C59U U60G yielded a self-cleavage of 0.14. Work on U31G G42C U80C yielded a self-cleavage of 0.18. U31G U41A U49C showed a self-cleavage of 0.08. With U31G U41A U72A the self-cleavage was 0.12. U31G U41C U51C showed a self-cleavage of 0.5. For U31G U41C U69C, the self-cleavage was 0.13. With U31G U41C U72A the self-cleavage was 0.37. With U31G U41G A47G C59A A64G the self-cleavage was 0.09. U31G U43A U48C C59A U60A showed a self-cleavage of 0.1. Variant U31G U43C A57G U72A has a self-cleavage of 0.22. Work on U31G U43C A57G U76C yielded a self-cleavage of 0.13. U31G U43C C59U A64U G73A U78C showed a self-cleavage of 0.1. For U31G U48A A57G, the self-cleavage was 0.12. U31G U48C A56G U66C gave a self-cleavage of 0.14. U31G U48C A56U U67C gave a self-cleavage of 0.12. For U31G U48C U51C U60C, the self-cleavage was 0.19. With U31G U49A U60C U74C U78C the self-cleavage was 0.08. In the case of U31G U49C U66C U78A, the self-cleavage is reported as 0.1. Work on U31G U51C A75U yielded a self-cleavage of 0.61. Variant U31G U72C A77U has a self-cleavage of 0.66. With C32A A35G G53C U78C the self-cleavage was 0.69. C32A A35G U41C U54A U60C U72C showed a self-cleavage of 0.13. C32A A35U G42C A57G showed a self-cleavage of 0.1. C32A A45G U54C U66C gave a self-cleavage of 0.12. In the case of C32A A45G U66C U76A U80C, the self-cleavage is reported as 0.11. C32A A45G U72C U76C gave a self-cleavage of 0.35. In the case of C32A A47G U48C U69A U72G A75G, the self-cleavage is reported as 0.05. With C32A A65G U66C the self-cleavage was 0.17. C32A C40U U60C showed a self-cleavage of 0.14. For C32A C40U U69C U78A, the self-cleavage was 0.06. For C32A C50U U51G U54C U76C, the self-cleavage was 0.06. For C32A G33A A56U U58C U72C U76A, the self-cleavage was 0.07. For C32A G36A U58A C59U U66C U74A, the self-cleavage was 0.07. C32A G52U U58C showed a self-cleavage of 0.18. C32A U41A A45U U51C U72C showed a self-cleavage of 0.17. For C32A U41C A45G A56G U66C, the self-cleavage was 0.12. In the case of C32A U41C U69G, the self-cleavage is reported as 0.07. With C32A U43A A47U the self-cleavage was 0.24. For C32A U43C G73C U74A, the self-cleavage was 0.21. Variant C32A U49A C62G has a self-cleavage of 0.12. C32A U49C U54C showed a self-cleavage of 0.06. For C32A U51C A56G A64U U69C, the self-cleavage was 0.04. C32A U51C G52A showed a self-cleavage of 0.12. Work on C32A U58A A77G yielded a self-cleavage of 0.39. With C32A U58A U72A A77G the self-cleavage was 0.06. In the case of C32A U60A U67A A77U, the self-cleavage is reported as 0.17. C32A U60C A64G U74C gave a self-cleavage of 0.13. Work on C32A U69C U72A yielded a self-cleavage of 0.1. In the case of C32G A35G U48C, the self-cleavage is reported as 0.07. Variant C32G A35U A47U C59U has a self-cleavage of 0.06. Variant C32G A47G U58C C59A A64U U67A has a self-cleavage of 0.08. For C32G A56G U66C, the self-cleavage was 0.43. Variant C32G A56G U69C has a self-cleavage of 0.08. With C32G C38U U60A U74G the self-cleavage was 0.09. Work on C32G G36C U43C A57G G63A A77C yielded a self-cleavage of 0.09. Variant C32G G36U U49C A56C has a self-cleavage of 0.06. C32G U43C U48C showed a self-cleavage of 0.32. Work on C32G U43C U54C A57G G63A yielded a self-cleavage of 0.08. In the case of C32G U48C A56U, the self-cleavage is reported as 0.12. For C32G U49C U54C G63C G70A, the self-cleavage was 0.06. In the case of C32U A35G A47G U51C, the self-cleavage is reported as 0.18. C32U A35U A45G U58A U78C showed a self-cleavage of 0. C32U A35U G53U U54A gave a self-cleavage of 0.04. Variant C32U A35U U43C A56U has a self-cleavage of 0.17. Work on C32U A35U U54A A56G yielded a self-cleavage of 0.1. C32U A35U U60A gave a self-cleavage of 0.12. C32U A45G A75G gave a self-cleavage of 0.15. For C32U A45G U51A U67C, the self-cleavage was 0.11. Work on C32U A45U A47G yielded a self-cleavage of 0.11. With C32U A45U A64G C81A the self-cleavage was 0.08. Variant C32U A47G U66A has a self-cleavage of 0.15. C32U A56U A57G A75G showed a self-cleavage of 0.11. In the case of C32U A64G C71U U80C, the self-cleavage is reported as 0.12. For C32U A65G U67A, the self-cleavage was 0.06. In the case of C32U A77G U78A, the self-cleavage is reported as 0.24. C32U C37U A45U showed a self-cleavage of 0.14. C32U C38A U41C U43A U54C showed a self-cleavage of 0.17. With C32U C39G A45U A65U the self-cleavage was 0.08. Work on C32U C40A U58C U80A yielded a self-cleavage of 0.22. In the case of C32U C40G U41C U43A U58C, the self-cleavage is reported as 0.15. In the case of C32U C40G U43A U49C U58C A65G, the self-cleavage is reported as 0.05. With C32U C40U A45G the self-cleavage was 0.18. For C32U C40U A56G, the self-cleavage was 0.39. In the case of C32U C59A U67A, the self-cleavage is reported as 0.14. C32U C71G U80G showed a self-cleavage of 0.16. Variant C32U G33A A35G U43A has a self-cleavage of 0.14. For C32U G46A U58C, the self-cleavage was 0.48. In the case of C32U G46U C62U U80C, the self-cleavage is reported as 0.03. For C32U U41A U72A, the self-cleavage was 0.12. For C32U U41C A64G, the self-cleavage was 0.14. Work on C32U U41G U49C U67C yielded a self-cleavage of 0.09. C32U U43A A56U U69A showed a self-cleavage of 0.07. In the case of C32U U43C A75U, the self-cleavage is reported as 0.17. C32U U43C U49C U69C showed a self-cleavage of 0.47. With C32U U43G U76C the self-cleavage was 0.3. Work on C32U U48G U51C U80C yielded a self-cleavage of 0.08. Work on C32U U51C A56U yielded a self-cleavage of 0.36. Work on C32U U51C C71A yielded a self-cleavage of 0.45. Work on C32U U51C U58G U74C yielded a self-cleavage of 0.12. For C32U U54C A56U U72C, the self-cleavage was 0.14. For C32U U58C A77U, the self-cleavage was 0.13. With C32U U58C U69A the self-cleavage was 0.07. In the case of C32U U69A U78C U80C, the self-cleavage is reported as 0.06. C32U U69C U72A U76C gave a self-cleavage of 0.06. For C32U U72A A75G, the self-cleavage was 0.19. For C32U U74C A75G, the self-cleavage was 0.22. In the case of G33A A35C U49C A56U U78C, the self-cleavage is reported as 0.1. G33A A35G A56U C79A showed a self-cleavage of 0.18. For G33A A35G U43A U66C U67A U72C, the self-cleavage was 0.04. Variant G33A A35G U54C U60A has a self-cleavage of 0.08. G33A A35U A47G C68U gave a self-cleavage of 0.11. Work on G33A A35U A56U A57G yielded a self-cleavage of 0.12. Variant G33A A35U C39U A47G has a self-cleavage of 0.14. With G33A A35U G36C C40U A57G the self-cleavage was 0.18. Work on G33A A35U U78C yielded a self-cleavage of 0.15. Work on G33A A45U U58A U60C yielded a self-cleavage of 0.13. For G33A A47G G73C U76A, the self-cleavage was 0.09. G33A A47G U49A gave a self-cleavage of 0.11. In the case of G33A A56G A57C, the self-cleavage is reported as 0.47.
